# Laboratory results published in the supplement of paper PMC8728848.
# Some of the results follow.
# B1: Regenerating Gene I (Homo sapiens), P05451 (protein)
# chain: MAQTSSYFMLISCLMFLSQSQGQEAQTELPQARISCPEGTNAYRSYCYYFNEDRETWVDADLYCQNMNSGNLVSVLTQAEGAFVASLIKESGTDDFNVWIGLHDPKKNRRWHWSSGSLVSYKSWGIGAPSSVNPGYCVSLTSSTGFQKWKDVPCEDKFSFVCKFKN
# Assays:
# Assay in all cases: glycan array binding signal (z-score within array); higher = stronger binding
# Details in all cases: glycan notation: IUPAC condensed, linker removed
# Fuc(a1-2)Gal = target: Fuc(a1-2)Gal
# How it was run: (§1)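 Columns mapping to the same glycan were averaged after glycan names were converted to IUPAC-condensed notation. The data come from 3228 arrays in the Consortium for Functional Glycomics database, limited to those with an available protein sequence. Binding is reported as a within-array Z-score averaged across arrays of one protein sequence and across linkers.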
# Fuc(a1-2)Gal(b1-3)GalNAc = target: Fuc(a1-2)Gal(b1-3)GalNAc
# How it was run: as §1
# [1] = target: Fuc(a1-2)Gal(b1-3)GalNAc(b1-3)Gal
# How it was run: as §1
# [2] = target: Fuc(a1-2)Gal(b1-3)GalNAc(b1-3)Gal(a1-4)Gal(b1-4)Glc
# How it was run: as §1
# [3] = target: Fuc(a1-2)Gal(b1-3)GalNAc(b1-4)[Neu5Ac(a2-3)]Gal(b1-4)Glc
# How it was run: as §1
# Fuc(a1-2)Gal(b1-3)GlcNAc = target: Fuc(a1-2)Gal(b1-3)GlcNAc
# How it was run: as §1
# [4] = target: Fuc(a1-2)Gal(b1-3)GlcNAc(b1-3)Gal(b1-4)Glc
# How it was run: as §1
# [5] = target: Fuc(a1-2)Gal(b1-3)[Fuc(a1-4)]GlcNAc
# How it was run: as §1
# Fuc(a1-2)Gal(b1-4)Glc = target: Fuc(a1-2)Gal(b1-4)Glc
# How it was run: as §1
# Fuc(a1-2)Gal(b1-4)Glc6S = target: Fuc(a1-2)Gal(b1-4)Glc6S
# How it was run: as §1
# Fuc(a1-2)Gal(b1-4)GlcNAc = target: Fuc(a1-2)Gal(b1-4)GlcNAc
# How it was run: as §1
# [6] = target: Fuc(a1-2)Gal(b1-4)GlcNAc(b1-3)Gal(b1-4)GlcNAc
# How it was run: as §1
# [7] = target: Fuc(a1-2)Gal(b1-4)GlcNAc(b1-3)Gal(b1-4)GlcNAc(b1-3)Gal(b1-4)GlcNAc
# How it was run: as §1
# [8] = target: Fuc(a1-2)Gal(b1-4)GlcNAc6S
# How it was run: as §1
# [9] = target: Fuc(a1-2)Gal(b1-4)[Fuc(a1-3)]GlcNAc
# How it was run: as §1
# [10] = target: Fuc(a1-2)Gal(b1-4)[Fuc(a1-3)]GlcNAc(b1-3)Gal(b1-4)[Fuc(a1-3)]GlcNAc
# How it was run: as §1
# [11] = target: Fuc(a1-2)Gal(b1-4)[Fuc(a1-3)]GlcNAc(b1-3)Gal(b1-4)[Fuc(a1-3)]GlcNAc(b1-3)Gal(b1-4)[Fuc(a1-3)]GlcNAc
# How it was run: as §1
# Fuc(a1-2)Gal6S(b1-4)Glc = target: Fuc(a1-2)Gal6S(b1-4)Glc
# How it was run: as §1
# [12] = target: Fuc(a1-2)Gal6S(b1-4)Glc6S
# How it was run: as §1
# [13] = target: Fuc(a1-2)Gal6S(b1-4)GlcNAc
# How it was run: as §1
# Fuc(a1-2)[Gal(a1-3)]Gal = target: Fuc(a1-2)[Gal(a1-3)]Gal
# How it was run: as §1
# [14] = target: Fuc(a1-2)[Gal(a1-3)]Gal(b1-3)GlcNAc
# How it was run: as §1
# [15] = target: Fuc(a1-2)[Gal(a1-3)]Gal(b1-4)Glc
# How it was run: as §1
# [16] = target: Fuc(a1-2)[Gal(a1-3)]Gal(b1-4)GlcNAc
# How it was run: as §1
# [17] = target: Fuc(a1-2)[Gal(a1-3)]Gal(b1-4)[Fuc(a1-3)]GlcNAc
# How it was run: as §1
# [18] = target: Fuc(a1-2)[Gal(a1-4)]Gal(b1-4)GlcNAc
# How it was run: as §1
# [19] = target: Fuc(a1-2)[GalNAc(a1-3)]Gal
# How it was run: as §1
# [20] = target: Fuc(a1-2)[GalNAc(a1-3)]Gal(b1-3)GlcNAc
# How it was run: as §1
# [21] = target: Fuc(a1-2)[GalNAc(a1-3)]Gal(b1-4)Glc
# How it was run: as §1
# [22] = target: Fuc(a1-2)[GalNAc(a1-3)]Gal(b1-4)GlcNAc
# How it was run: as §1
# [23] = target: Fuc(a1-2)[GalNAc(a1-3)]Gal(b1-4)[Fuc(a1-3)]GlcNAc
# How it was run: as §1
# [24] = target: Fuc(a1-2)[GalNAc(a1-4)]Gal(b1-4)GlcNAc
# How it was run: as §1
# [25] = target: Fuc(a1-2)[GalNAc(b1-3)]Gal
# How it was run: as §1
# Fuc(a1-3)GlcNAc = target: Fuc(a1-3)GlcNAc
# How it was run: as §1
# [26] = target: Fuc(a1-3)[Gal(b1-4)]Glc6S
# How it was run: as §1
# [27] = target: Fuc(a1-3)[Gal(b1-4)]GlcNAc
# How it was run: as §1
# [28] = target: Fuc(a1-3)[Gal(b1-4)]GlcNAc(b1-2)Man(a1-3)[Fuc(a1-3)[Gal(b1-4)]GlcNAc(b1-2)Man(a1-6)]Man(b1-4)GlcNAc(b1-4)GlcNAc
# How it was run: as §1
binder,measurement,setting,value
B1,glycan array binding signal (z-score),Fuc(a1-2)Gal,-0.366
same,glycan array binding signal (z-score),Fuc(a1-2)Gal(b1-3)GalNAc,0.019
same,glycan array binding signal (z-score),[1],-0.459
same,glycan array binding signal (z-score),[2],-0.561
same,glycan array binding signal (z-score),[3],-0.17
same,glycan array binding signal (z-score),Fuc(a1-2)Gal(b1-3)GlcNAc,0.417
same,glycan array binding signal (z-score),[4],-0.32
same,glycan array binding signal (z-score),[5],-0.042
same,glycan array binding signal (z-score),Fuc(a1-2)Gal(b1-4)Glc,-0.035
same,glycan array binding signal (z-score),Fuc(a1-2)Gal(b1-4)Glc6S,-0.292
same,glycan array binding signal (z-score),Fuc(a1-2)Gal(b1-4)GlcNAc,-0.126
same,glycan array binding signal (z-score),[6],-0.231
same,glycan array binding signal (z-score),[7],-0.076
same,glycan array binding signal (z-score),[8],-0.425
same,glycan array binding signal (z-score),[9],-0.293
same,glycan array binding signal (z-score),[10],-0.347
same,glycan array binding signal (z-score),[11],-0.093
same,glycan array binding signal (z-score),Fuc(a1-2)Gal6S(b1-4)Glc,0.769
same,glycan array binding signal (z-score),[12],0.768
same,glycan array binding signal (z-score),[13],-0.438
same,glycan array binding signal (z-score),Fuc(a1-2)[Gal(a1-3)]Gal,0.299
same,glycan array binding signal (z-score),[14],-0.238
same,glycan array binding signal (z-score),[15],-0.464
same,glycan array binding signal (z-score),[16],-0.542
same,glycan array binding signal (z-score),[17],-0.077
same,glycan array binding signal (z-score),[18],-0.144
same,glycan array binding signal (z-score),[19],0.153
same,glycan array binding signal (z-score),[20],-0.479
same,glycan array binding signal (z-score),[21],-0.443
same,glycan array binding signal (z-score),[22],0.007
same,glycan array binding signal (z-score),[23],-0.237
same,glycan array binding signal (z-score),[24],-0.038
same,glycan array binding signal (z-score),[25],-0.444
same,glycan array binding signal (z-score),Fuc(a1-3)GlcNAc,1.09
same,glycan array binding signal (z-score),[26],0.685
same,glycan array binding signal (z-score),[27],-0.256
same,glycan array binding signal (z-score),[28],-0.598
